The inconclusive results got no clear call from the source; some entries with a clear call stand among them for comparison. A potency beside an inconclusive call is a rough fit, not a confirmed value. Activity calls are given as the source filed them. Calls follow the shape of the dose curve; as a rule, active = well fitted activation curve with a large enough effect in the signal ratio in the repeat runs (not every such curve was filed as active); inconclusive = weak or mixed curves, or effect the other way; inactive = no such curve, though single readings can be large or run the other way; the % refers to the signal ratio.
test: qHTS assay for small molecule agonists of the antioxidant response element (ARE) signaling pathway (AID 743202); conditions: HepG2 ARE-bla reporter, beta-lactamase FRET, 16 h; activation: at 73.3 µM (top of the series) unless noted
Procedure, shortened: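 ARE-bla HepG2 cells (beta-lactamase reporter under the antioxidant response element), plated 5 hours, then exposed to compounds 16 hours at 37 C. LiveBLAzer B/G FRET substrate added for 2 hours at room temperature; fluorescence intensity read.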
% is scaled to controls: 0 for no effect and ±100 for the full control effect; potency is read from the fitted curve at half-maximal effect; tags tell the direction and shape of the fitted curve.

Compound | activation | Potency
CCCCCCCCCCCCCCC[C@H](O)[C@@H](N)CO | inconclusive: -7.67% | 
COCCOC | inactive: -3.01% | 
Cc1cc(-n2nc3ccc(Cl)cc3n2)c(O)c(C(C)(C)C)c1 | inactive: 2.97% | 
CC1(C)CC(N)CC(C)(CN)C1 (stereo not drawn) |  | inactive
O=Cc1cccc(Br)c1 | inconclusive: -10.9% [at 94.8 µM] | 
CC(COc1ccc(C(C)(C)C)cc1)OS(=O)OCCCl (stereo not drawn) | inactive: -1.46% [at 94.8 µM] | 
O=C(O)CCCc1ccccc1 | inconclusive: 0.655% | 
CC(CN)CCCN (stereo not drawn) | inactive: 5.67% | 
NCCOCCO |  | inactive
CS(=O)(=O)Nc1ccc([N+](=O)[O-])cc1Oc1ccccc1 | inconclusive: 6.33% | inconclusive: 68.6 µM
CC(C)C[P+](C)(CC(C)C)CC(C)C | inactive: 5.89% [at 94.8 µM] | 
CCCC(O)C(CC)CO (stereo not drawn) |  | inactive
Cc1ccc2c(c1[N+](=O)[O-])C(=O)c1ccccc1C2=O |  | active: 6.73 µM
CCCCCCCC/C=C/C(=O)O | inactive: 0.175% | 
OCc1ccccc1O | inconclusive: 17.3% | 
CN(C)CCOC(c1ccc(Cl)cc1)c1ccccn1 (stereo not drawn) |  | inconclusive: 13.3 µM [falling, partial curve]
CCCCCCCCCCCCCCCC(=O)OCC | inconclusive: -3.98% | 
COC(=O)c1ccccc1O | inconclusive: 1.44% | 
CC(C)c1ccccc1O | inactive: -4.63% | 
COc1ccc(Cl)cc1C(=O)NCCc1ccc(S(=O)(=O)NC(=O)NC2CCCCC2)cc1 | inconclusive: 12.8% | inconclusive: 37.6 µM [rising, partial curve, poor fit]
NS(=O)(=O)c1cc2c(cc1Cl)NC=NS2(=O)=O |  | inconclusive: 13.3 µM [rising, full curve, poor fit]

— PubChem BioAssay (Tox21)
